# A collection of fitness landscapes (doi:10.1016/j.celrep.2020.107928)
# In all, about 81,000 sequences were measured (“one-hybrid fitness for binding NBS DNA”: median about -0.1, highest 2% from about 0.36 on). The list shows a part of the results.
# B1: Caulobacter ParB omega fusion; a variant is named by its letters at X, in order, B8GW30 (parent)
# chain: MESVVVGEPGMSEGRRGLGRGLSALLGEVDAAPAQAPGEQLGGSREAPIEILQRNPDQPRRTFREEDLEDLSNSIREKGVLQPILVRPSPDTAGEYQIVAGERAWRAAQRAGLKTVPIMVRELDDLAVLEIGIIENVQRADLNVLEEALSYKVLMEKFERTQENIAQTIGKSXSHVANXMRLLXLPDEVQSYLVSGELTAXHARAIAAAADPVALAKQIIEGGLSVRETEALARKAPNLSAGKSKGGRPPRVKDTDTQALESDLSSVLGLDVSIDHRGSTGTLTITYATLEQLDDLCNRLTRGI
# Variants of: B1
# Test: one-hybrid fitness for binding NBS DNA (the Noc-binding site; scaled: cognate 1, non-cognate 0); higher = stronger binding
# Details: with NBS DNA site
# How it was run: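 Pre- and post-selection plasmids were Illumina-sequenced, three replicate libraries were pooled, and any variant with under 10 reads was removed. The libraries were Caulobacter ParB with four specificity codons randomised, selected in E. coli USO through a HIS3 reporter whose site is 19 bp from the promoter. Cells grew 48 hours at 37°C on M9 without histidine, with 0.1 mM IPTG and 5 mM 3-AT. Fitness is the log change in variant-to-wild-type read ratio, rescaled against cognate and non-cognate.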
row,Variant,one-hybrid fitness for binding NBS DNA
1,DRAC,≤ 0.2
2,QQLL,≤ 0.2
3,FQHS,≤ 0.2
4,ARNT,≤ 0.2
5,YGQR,≤ 0.2
6,LHPL,≤ 0.2
7,LSQS,≤ 0.2
8,WPSP,≤ 0.2
9,KKTE,≤ 0.2
10,TYRC,≤ 0.2
11,PHID,≤ 0.2
12,TPLD,≤ 0.2
13,RQTQ,≤ 0.2
14,DHLM,≤ 0.2
15,RLQW,≤ 0.2
16,MCLG,≤ 0.2
17,SPDG,≤ 0.2
18,THDG,≤ 0.2
19,QTAR,0.768
20,QKQD,≤ 0.2
21,QMKT,0.75
22,PECR,≤ 0.2
23,IAII,≤ 0.2
24,HTIE,≤ 0.2
25,KNNR,≤ 0.2

row,Variant,one-hybrid fitness for binding NBS DNA
1,KCKS,≤ 0.2
2,WIRE,≤ 0.2
3,CLMY,≤ 0.2
4,PQKV,≤ 0.2
5,VYPH,≤ 0.2
6,SSLN,≤ 0.2
7,CRHH,≤ 0.2
8,MSGC,≤ 0.2
9,LPWT,≤ 0.2
10,SPKN,≤ 0.2
11,DGKW,≤ 0.2
12,FQTL,≤ 0.2
13,SYDG,≤ 0.2
14,QQST,0.516
15,VVYG,≤ 0.2
16,YAYA,≤ 0.2
17,GFKC,≤ 0.2
18,HLTY,≤ 0.2
19,TKLA,≤ 0.2
20,FSYA,≤ 0.2
21,DISC,≤ 0.2
22,RRAA,0.664
23,YLLS,≤ 0.2
24,TWAK,≤ 0.2
25,KVFS,≤ 0.2

row,Variant,one-hybrid fitness for binding NBS DNA
1,FKHS,≤ 0.2
2,LSAF,≤ 0.2
3,FNRY,≤ 0.2
4,PVQI,≤ 0.2
5,HFMR,≤ 0.2
6,PSEH,≤ 0.2
7,SAQE,≤ 0.2
8,TIRR,≤ 0.2
9,HQMM,≤ 0.2
10,CSMT,≤ 0.2
11,IKER,≤ 0.2
12,RHGH,≤ 0.2
13,TDAV,≤ 0.2
14,PSHR,≤ 0.2
15,HPQT,≤ 0.2
16,QHCS,0.279
17,TNDT,≤ 0.2
18,EEVG,≤ 0.2
19,RTLR,0.461
20,ETLK,≤ 0.2
21,NELS,≤ 0.2
22,KVQA,≤ 0.2
23,GRFC,≤ 0.2
24,FSKF,≤ 0.2
25,SFRL,≤ 0.2

row,Variant,one-hybrid fitness for binding NBS DNA
1,TGGC,≤ 0.2
2,LPPV,≤ 0.2
3,TYST,≤ 0.2
4,RGIG,≤ 0.2
5,VQRH,≤ 0.2
6,AALY,≤ 0.2
7,LMVA,≤ 0.2
8,NLIG,≤ 0.2
9,LQRH,≤ 0.2
10,YDNH,≤ 0.2
11,PRDN,≤ 0.2
12,NSAR,≤ 0.2
13,KLRL,≤ 0.2
14,TLES,≤ 0.2
15,CMVG,≤ 0.2
16,CGTY,≤ 0.2
17,VFSV,≤ 0.2
18,STRF,≤ 0.2
19,GKPG,≤ 0.2
20,IRNM,≤ 0.2
21,FPEG,≤ 0.2
22,MPGG,≤ 0.2
23,NNPE,≤ 0.2
24,SIIT,≤ 0.2
25,KFST,≤ 0.2

row,Variant,one-hybrid fitness for binding NBS DNA
1,TWFV,≤ 0.2
2,NDHT,≤ 0.2
3,LSEI,≤ 0.2
4,CMKG,≤ 0.2
5,NRYF,≤ 0.2
6,HRYV,≤ 0.2
7,VSHE,≤ 0.2
8,YSML,≤ 0.2
9,NRFQ,≤ 0.2
10,LVEA,≤ 0.2
11,PVCC,≤ 0.2
12,TDAG,≤ 0.2
13,FVNC,≤ 0.2
14,EAVT,≤ 0.2
15,QYWC,≤ 0.2
16,SSEQ,≤ 0.2
17,HSPS,≤ 0.2
18,TIQS,≤ 0.2
19,KCNC,≤ 0.2
20,KVRS,≤ 0.2
21,CTLQ,≤ 0.2
22,TYCG,≤ 0.2
23,MRVI,≤ 0.2
24,EPSL,≤ 0.2
25,IASD,≤ 0.2

row,Variant,one-hybrid fitness for binding NBS DNA
1,PSMH,≤ 0.2
2,RDSM,≤ 0.2
3,EMTC,≤ 0.2
4,PLLG,≤ 0.2
5,INLI,≤ 0.2
6,GGSG,≤ 0.2
7,REWC,≤ 0.2
8,YKQA,≤ 0.2
9,VVTR,≤ 0.2
10,RCMV,≤ 0.2
11,MCAL,≤ 0.2
12,TSYA,≤ 0.2
13,YTAG,≤ 0.2
14,TNIG,≤ 0.2
15,RYDP,≤ 0.2
16,RYSR,0.452
17,NLPT,≤ 0.2
18,GANT,≤ 0.2
19,NQPG,≤ 0.2
20,RTNY,0.275
21,IMCR,≤ 0.2
22,CAVG,≤ 0.2
23,NPTA,≤ 0.2
24,TCNL,≤ 0.2
25,VPNV,≤ 0.2

row,Variant,one-hybrid fitness for binding NBS DNA
1,RKAV,≤ 0.2
2,DRTD,≤ 0.2
3,HSWT,≤ 0.2
4,DRER,≤ 0.2
5,QDCM,≤ 0.2
6,GAIR,≤ 0.2
7,HMKS,≤ 0.2
8,PEYE,≤ 0.2
9,NVKM,≤ 0.2
10,QDPL,≤ 0.2
11,GEHR,≤ 0.2
12,SLCP,≤ 0.2
13,HITS,≤ 0.2
14,PMNH,≤ 0.2
15,HDAA,≤ 0.2
16,HRRL,≤ 0.2
17,SVSR,≤ 0.2
18,CWTL,≤ 0.2
19,IFRG,≤ 0.2
20,GGGV,≤ 0.2
21,MNTI,≤ 0.2
22,IPSD,≤ 0.2
23,HKTE,≤ 0.2
24,DKAA,≤ 0.2
25,KCSM,≤ 0.2

row,Variant,one-hybrid fitness for binding NBS DNA
1,VEKR,≤ 0.2
2,DDGS,≤ 0.2
3,EDTT,≤ 0.2
4,MKWR,≤ 0.2
5,CTDT,≤ 0.2
6,CCQW,≤ 0.2
7,FKTT,≤ 0.2
8,DKQT,≤ 0.2
9,FHKC,≤ 0.2
10,ACVR,≤ 0.2
11,MKFW,≤ 0.2
12,APTP,≤ 0.2
13,WVSR,≤ 0.2
14,TSMP,≤ 0.2
15,SHEG,≤ 0.2
16,QHTT,0.412
17,VHER,≤ 0.2
18,SMSE,≤ 0.2
19,RSVV,≤ 0.2
20,IKSD,≤ 0.2
